Data from PMC4336329 (PLoS ONE, 2015).
The whole screen tested about 310,000 compounds, of which about 14,000 (4.5%) showed an effect of 50% or more. The effect is printed as a negative number. The list shows a part of the results.

Molecular target: human ether-à-go-go-related gene (hERG) potassium channel (human, UniProt Q12809)
Assay: primary screen, population patch clamp on CHO cells stably expressing hERG
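Further: peak tail current of the secondary pulse compared with the same well before compound.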

Sequence of human ether-à-go-go-related gene (hERG) potassium channel (Q12809 whole entry, looked up): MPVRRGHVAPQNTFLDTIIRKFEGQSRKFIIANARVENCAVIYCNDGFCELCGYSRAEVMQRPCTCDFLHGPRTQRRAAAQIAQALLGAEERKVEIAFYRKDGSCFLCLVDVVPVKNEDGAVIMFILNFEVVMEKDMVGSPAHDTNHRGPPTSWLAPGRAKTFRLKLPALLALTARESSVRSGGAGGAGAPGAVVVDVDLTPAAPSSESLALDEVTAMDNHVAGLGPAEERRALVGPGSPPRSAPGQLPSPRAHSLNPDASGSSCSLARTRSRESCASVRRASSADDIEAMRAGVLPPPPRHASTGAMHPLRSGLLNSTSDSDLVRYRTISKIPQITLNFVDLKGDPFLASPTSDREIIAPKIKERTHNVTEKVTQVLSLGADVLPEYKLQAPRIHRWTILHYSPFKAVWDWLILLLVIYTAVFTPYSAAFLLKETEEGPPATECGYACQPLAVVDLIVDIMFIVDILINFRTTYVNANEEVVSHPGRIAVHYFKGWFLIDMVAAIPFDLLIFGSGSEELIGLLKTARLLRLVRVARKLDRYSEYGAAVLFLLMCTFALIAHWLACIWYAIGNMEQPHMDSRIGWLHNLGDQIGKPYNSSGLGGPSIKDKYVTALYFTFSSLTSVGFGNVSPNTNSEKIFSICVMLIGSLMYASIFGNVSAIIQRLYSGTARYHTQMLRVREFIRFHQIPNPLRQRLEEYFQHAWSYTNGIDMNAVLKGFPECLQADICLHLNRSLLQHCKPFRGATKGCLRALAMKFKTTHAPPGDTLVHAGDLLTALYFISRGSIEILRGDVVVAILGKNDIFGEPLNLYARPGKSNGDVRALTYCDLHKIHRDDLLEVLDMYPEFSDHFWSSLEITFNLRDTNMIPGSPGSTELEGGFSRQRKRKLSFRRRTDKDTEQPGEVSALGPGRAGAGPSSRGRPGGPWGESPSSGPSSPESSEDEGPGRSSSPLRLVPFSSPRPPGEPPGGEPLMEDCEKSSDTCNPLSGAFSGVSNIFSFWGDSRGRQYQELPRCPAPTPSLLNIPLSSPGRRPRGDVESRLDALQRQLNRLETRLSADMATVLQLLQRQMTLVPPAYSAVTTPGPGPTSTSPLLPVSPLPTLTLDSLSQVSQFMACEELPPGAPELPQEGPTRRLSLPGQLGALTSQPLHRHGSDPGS

**Q.** How did the “hERG current change (%, negative = inhibition) at 10uM” value turn out when `CCOc1cc2c(cc1OCC)-n1cccc1C(c1cccc(F)c1)NC2.Cl` (stereo not shown) was run?
**A.** -14.8%

**Q.** With `Cc1ccc(C)c(S(=O)(=O)N2C(=S)NC(=O)C2C(C)C)c1` (stereo not shown) as the compound, how does the “hERG current change (%, negative = inhibition) at 10uM” value read?
**A.** 8.6%

**Q.** How did the “hERG current change (%, negative = inhibition) at 10uM” value turn out when `O=C(Nc1ccc2c(c1)OCO2)C1CCN(S(=O)(=O)c2cccc3cccnc23)CC1` was run?
**A.** 15.5%

**Q.** Which “hERG current change (%, negative = inhibition) at 10uM” value does the source give for `O=C(CCN1CCN(C/C=C/c2ccccc2)CC1)Nc1ccccc1F.O=C(O)C(=O)O` here?
**A.** -75.1%

**Q.** Which “hERG current change (%, negative = inhibition) at 10uM” value does the source give for `COc1ccccc1N(CC(=O)Nc1ccc2c(c1)OCCO2)S(=O)(=O)c1ccc(C)cc1` here?
**A.** 5.68%

**Q.** Which “hERG current change (%, negative = inhibition) at 10uM” value does the source give for `CN(c1ccccc1)C(c1ccc(F)cc1)c1nnnn1CC1CCCO1.Cl` (stereo not shown) here?
**A.** -14.1%

**Q.** With `COCCCNC(=O)C1CCC(CNS(=O)(=O)c2ccc3c(c2)CC(C)N3C(=O)C2CC2)CC1` (stereo not shown) as the compound, how does the “hERG current change (%, negative = inhibition) at 10uM” value read?
**A.** -5.73%

**Q.** Which “hERG current change (%, negative = inhibition) at 10uM” value does the source give for `CC1=C(C(N)=O)C(c2cccs2)n2nc(-c3cccc(C)c3)nc2N1` (stereo not shown) here?
**A.** -16.7%

**Q.** For `CN1C(C(=O)Nc2ccc(F)cc2F)=CC(c2ccco2)=NS1(=O)=O`, which “hERG current change (%, negative = inhibition) at 10uM” value is on record?
**A.** -4.52%

**Q.** `CCCCn1c(N)c(N2CCOCC2)c(=O)n(CC(=O)NC(C)c2ccccc2)c1=O` (stereo not shown) was tested. Which “hERG current change (%, negative = inhibition) at 10uM” value did it give?
**A.** 16.3%

**Q.** Which “hERG current change (%, negative = inhibition) at 10uM” value does the source give for `COc1ccc(-n2c(-c3ccc(C)cc3)nc3ccccc3c2=O)cc1` here?
**A.** -19.2%

**Q.** `Cc1ccc(NC(=O)Nc2ccccc2C#N)c(Cl)c1` was tested. Which “hERG current change (%, negative = inhibition) at 10uM” value did it give?
**A.** 16.2%

**Q.** How did the “hERG current change (%, negative = inhibition) at 10uM” value turn out when `Cn1c(=O)c2c(nc(NCc3cccnc3)n2Cc2ccc(Cl)cc2)n(C)c1=O` was run?
**A.** -36.5%

**Q.** With `Cc1ccc(CN2CCN(Cc3cnc(N4CCOCC4)s3)CC2CCO)cc1` (stereo not shown) as the compound, how does the “hERG current change (%, negative = inhibition) at 10uM” value read?
**A.** -46.7%

**Q.** How did the “hERG current change (%, negative = inhibition) at 10uM” value turn out when `S=C(NC1CCCCC1)N(CCc1ccccc1)CCc1ccccc1` was run?
**A.** -3.51%

**Q.** For `O=C(CCN1CCCCC1)NCC1OCCc2ccccc21` (stereo not shown), which “hERG current change (%, negative = inhibition) at 10uM” value is on record?
**A.** -15.5%

**Q.** How did the “hERG current change (%, negative = inhibition) at 10uM” value turn out when `Fc1cccc(NC(=S)N2CCn3cccc3C2c2cccnc2)c1` (stereo not shown) was run?
**A.** 10%

**Q.** How did the “hERG current change (%, negative = inhibition) at 10uM” value turn out when `CCOC(=O)C(NC(=O)c1ccccc1)(Nc1cc(C)on1)C(F)(F)F` (stereo not shown) was run?
**A.** 2.6%

**Q.** For `C(=N\Nc1nc(N2CCOCC2)nc(N2CCOCC2)n1)/c1ccncc1`, which “hERG current change (%, negative = inhibition) at 10uM” value is on record?
**A.** 6.37%

**Q.** Which “hERG current change (%, negative = inhibition) at 10uM” value does the source give for `COC(=O)c1sccc1NC(=O)c1c(C)c(-c2cccc(Cl)c2)nc2ccccc12` here?
**A.** 16.7%

**Q.** `O=C(CNC(=O)c1ccccc1F)NCCOc1ccccc1Cl` was tested. Which “hERG current change (%, negative = inhibition) at 10uM” value did it give?
**A.** 12.1%

**Q.** For `CC(C)N(Cc1nc(-c2ccc(Cl)cc2)no1)C(=O)C12CC3CC(CC(C3)C1)C2`, which “hERG current change (%, negative = inhibition) at 10uM” value is on record?
**A.** 10.8%

**Q.** `CCOC(=O)CNC(=O)c1cn(CC(C)C)c(=O)c2cc(OC)c(OC)cc12` was tested. Which “hERG current change (%, negative = inhibition) at 10uM” value did it give?
**A.** -24%

**Q.** Which “hERG current change (%, negative = inhibition) at 10uM” value does the source give for `COc1ccc(C)cc1NC(=O)C1CCCN(S(=O)(=O)c2ccc3c(c2)CCCN3C(C)=O)C1` (stereo not shown) here?
**A.** -2.38%

**Q.** With `CCc1cccc(C)c1NC(=O)C1CCCO1` (stereo not shown) as the compound, how does the “hERG current change (%, negative = inhibition) at 10uM” value read?
**A.** 6.66%

**Q.** `CCOC(=O)c1sc(-c2cccc([N+](=O)[O-])c2)cc1N` was tested. Which “hERG current change (%, negative = inhibition) at 10uM” value did it give?
**A.** 27.7%

**Q.** `CNC(=S)Nc1sc2c(c1C(=O)OC)CCC2` was tested. Which “hERG current change (%, negative = inhibition) at 10uM” value did it give?
**A.** 9.71%

**Q.** How did the “hERG current change (%, negative = inhibition) at 10uM” value turn out when `O=C(NC(=S)Nc1ccc2oc(-c3cccnc3)nc2c1)c1cccc(Cl)c1` was run?
**A.** -1.17%

**Q.** With `CCCNc1nc2c(c(=O)[nH]c(=O)n2C)n1CCc1ccccc1` as the compound, how does the “hERG current change (%, negative = inhibition) at 10uM” value read?
**A.** 4.04%

**Q.** With `COC(=O)CC1C(=O)NCCN1C(=S)Nc1ccccc1Cl` (stereo not shown) as the compound, how does the “hERG current change (%, negative = inhibition) at 10uM” value read?
**A.** 13.3%

**Q.** Which “hERG current change (%, negative = inhibition) at 10uM” value does the source give for `Cc1ccc2[nH]c(=O)c(CN(CCCN(C)C)C(=O)Nc3ccc(Cl)cc3)cc2c1` here?
**A.** -66.1%

**Q.** How did the “hERG current change (%, negative = inhibition) at 10uM” value turn out when `Cc1ccc(OCC(=O)NNC(=S)NC(=O)C2CCCCC2)c(C)c1` was run?
**A.** -0.527%

**Q.** Which “hERG current change (%, negative = inhibition) at 10uM” value does the source give for `O=C1C(=O)N(c2ccccn2)C(c2cccc([N+](=O)[O-])c2)/C1=C(/O)c1ccc(Br)cc1` (stereo not shown) here?
**A.** 6.29%

**Q.** With `COc1ccccc1-n1c(-c2cc(-c3ccco3)[nH]n2)n[nH]c1=S` as the compound, how does the “hERG current change (%, negative = inhibition) at 10uM” value read?
**A.** 1.06%

**Q.** How did the “hERG current change (%, negative = inhibition) at 10uM” value turn out when `COc1ccc(OC)c(NC(=O)c2oc3c(c2C)C(O)CC(C)(C)C3)c1` (stereo not shown) was run?
**A.** 5.4%

**Q.** For `CC(OC(=O)c1ccc2c(=O)n3c(nc2c1)CCCCC3)C(=O)Nc1ccc(F)cc1Cl` (stereo not shown), which “hERG current change (%, negative = inhibition) at 10uM” value is on record?
**A.** 15.4%

**Q.** How did the “hERG current change (%, negative = inhibition) at 10uM” value turn out when `CSc1ccccc1C(=O)NCc1ccc(F)cc1` was run?
**A.** 2.61%

**Q.** `O=C1NC(=O)C(Cc2c[nH]c3ccccc23)N1` (stereo not shown) was tested. Which “hERG current change (%, negative = inhibition) at 10uM” value did it give?
**A.** 17%

**Q.** With `NC(=O)CC(NC(=O)c1ccccc1)c1ccc(NCCc2ccc(Cl)cc2)c([N+](=O)[O-])c1` (stereo not shown) as the compound, how does the “hERG current change (%, negative = inhibition) at 10uM” value read?
**A.** 1.56%

**Q.** For `CSc1nsc(SC)c1NC(=O)Nc1ccccc1C`, which “hERG current change (%, negative = inhibition) at 10uM” value is on record?
**A.** 9.65%

**Q.** For `Cc1cccc2c(=O)cc(C)n(CC(=O)N3CCOCC3)c12`, which “hERG current change (%, negative = inhibition) at 10uM” value is on record?
**A.** 4.76%

**Q.** Which “hERG current change (%, negative = inhibition) at 10uM” value does the source give for `COc1ccc(NC(=O)c2ccco2)cc1NC(=O)c1c(OC)cccc1OC` here?
**A.** 13.8%

**Q.** How did the “hERG current change (%, negative = inhibition) at 10uM” value turn out when `COc1ccc(C(CNC(=O)c2cc(SC)ccc2Cl)N(C)C)cc1` (stereo not shown) was run?
**A.** -13.2%
